Assay results published in PubChem BioAssay (Tox21).
Inconclusive results, whose numbers are uncertain, are shown with a selection of clear calls. Where the call is inconclusive, the potency comes from a doubtful curve fit. More than one record can exist for a structure, and the calls need not agree. Activity calls are given as the source filed them. Calls come from the whole dose curve; as a rule, active = well fitted activation curve with a large enough effect in the signal ratio in the repeat runs (not every such curve was filed as active); inconclusive = weak or mixed curves, or effect the other way; inactive = flat fitted curve, though single readings scatter; the % refers to the signal ratio.

Molecular target: Estrogen receptor beta (Homo sapiens) (UniProt Q92731)
Experiment: qHTS assay to identify small molecule agonists of the estrogen receptor beta (ER-beta) signaling pathway (AID 1259377)
Details: ER-beta-UAS-bla HEK293T, beta-lactamase FRET ratio, 16 h; activation: at 92.4 µM (top of the series) unless noted
Description: U.S. Tox21 Program National Center for Advancing Translational Sciences [NCATS] NIH Chemical Genomics Center [NCGC] U.S. Environmental Protection Agency [EPA] National Institutes of Environmental Health Sciences [NIEHS] National Toxicology Program [NTP] U.S. Food and Drug Administration [FDA] Tox21 Assay Overview: Estrogen receptor (ER), a nuclear hormone receptor, plays an important role in development, metabolic homeostasis and reproduction. Two subtypes of ER, ER-alpha and ER-beta, have similar expression patterns with some uniqueness in both types. Endocrine disrupting chemicals (EDCs) and their interactions with steroid hormone receptors like ER causes disruption of normal endocrine function. To identify the compounds that activate ER signaling, an ER beta-UAS-bla GripTite cell line (Life technologies, Madison, WI, USA) containing a beta-lactamase reporter gene under the control of an Upstream Activator Sequence (UAS) was used to screen Tox21 10K compound library.
Tox21 Assay Protocol Summary: ER-beta-UAS-bla HEK293T cells were dispensed at 2,000 cells/5 uL of assay medium containing 2% charcoal stripped FBS per well into black wall/clear-bottom 1536-well plates using a Multidrop Combi (ThermoFisher Scientific, Waltham, MA) dispenser. After the assay plates were incubated at a 37C and 5% CO2 for 6 hr, 23 nL of compounds dissolved in DMSO, positive controls or DMSO only was transferred to the assay plate by a Pintool station (Kalypsys, San Diego, CA). The plates were incubated at 37C and 5% CO2 for 16 hr. Then 1 uL of LiveBLAzerTM B/G FRET substrate was added using a BioRAPTR FRD (Flying Reagent Dispenser, Aurora Discovery, San Diego, CA). After the plates were incubated at room temperature for 2 hours, fluorescence intensity was measured by an Envision plate reader (PerkinElmer, Shelton, CT).
% is set by controls: 0 for no effect and ±100 for the full control effect; potency is the fitted concentration of half-maximal effect; tags give direction and shape of the fitted curve or compound fluorescence and quenching.

Sequence of UniProt Q92731 (Q92731 whole entry, looked up): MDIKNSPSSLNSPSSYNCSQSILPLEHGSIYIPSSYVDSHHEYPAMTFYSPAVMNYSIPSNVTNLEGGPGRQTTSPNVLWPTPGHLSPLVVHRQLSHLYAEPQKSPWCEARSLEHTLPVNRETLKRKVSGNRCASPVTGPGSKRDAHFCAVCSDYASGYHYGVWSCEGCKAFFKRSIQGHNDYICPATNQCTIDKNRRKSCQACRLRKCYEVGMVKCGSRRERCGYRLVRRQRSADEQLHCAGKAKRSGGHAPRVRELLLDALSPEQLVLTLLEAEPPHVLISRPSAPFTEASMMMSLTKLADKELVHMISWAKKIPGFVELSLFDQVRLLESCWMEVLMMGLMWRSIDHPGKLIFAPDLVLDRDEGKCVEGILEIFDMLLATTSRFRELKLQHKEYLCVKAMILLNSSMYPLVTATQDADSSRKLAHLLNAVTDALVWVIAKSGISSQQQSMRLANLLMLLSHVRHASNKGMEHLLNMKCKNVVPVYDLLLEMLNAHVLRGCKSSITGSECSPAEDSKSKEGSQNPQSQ

Structure (SMILES) | Potency | activation
O=C(O)CCCC(=O)O | active: 30 µM | 
COc1ccc(C(=O)Nc2nc3ccccc3c(NCc3ccccc3)c2C#N)cc1 | inconclusive: 68.6 µM [rising, single point] | 
O=C(N[C@@H](Cc1ccccc1)[C@@H](O)C(=O)N1C[C@@H](O)[C@@H](O)C1)c1cc2cc(Cl)ccc2[nH]1 | inactive | 
Fc1ccccc1-c1ccccc1 | inactive | 
COc1ccnc2c1CCCCC2S(=O)c1nc2ccccc2[nH]1 (stereo not given) |  | inconclusive: -0.451% [at 42.5 µM]
COCCOCCOCCOCCOC | inactive | 
C=Cc1ccc(O)c(OC)c1 | inconclusive: 68.6 µM [fluorescent, single point] | 
CC1CCc2cc(F)cc3c(=O)c(C(=O)O)cn1c23 (stereo not given) | inactive | 
CCc1c(C)cc(N)c(CC)c1N | inactive | 
CC(C)(C)[C@@H](O)[C@@H](Cc1ccc(Cl)cc1)n1cncn1 | inactive | 
CN(C)CCCN1c2ccccc2Sc2ccccc21 | inconclusive: 33.5 µM [rising, partial curve, poor fit] | 
CNNCc1ccc(C(=O)NC(C)C)cc1 |  | inconclusive: 8.06% [at 42.5 µM]
CC(C)=CCCC(C)C=O (stereo not given) |  | inconclusive: 7.99%
Cc1ccc2c(Cl)cc(Cl)c(O)c2n1 | inactive | 
Nc1ccc2ccccc2c1S(=O)(=O)O |  | inconclusive: 3.83%
CC(=O)C=O |  | inconclusive: 11.9%
CC(C)(C)c1ccc(OC(=O)c2ccccc2O)cc1 |  | inconclusive: 9.29%
C1CCC2OC2C1 (stereo not given) |  | inconclusive: 9.92%
CC(C)C[C@H](NC(=O)[C@H](Cc1ccccc1)NC(=O)c1cnccn1)B(O)O | inconclusive: 2.98 µM [rising, partial curve] | 
CN1CCN(C2=Nc3ccccc3Sc3ccc(Cl)cc32)CC1 | inconclusive: 33.5 µM [rising, partial curve, poor fit] | 

Structure (SMILES) | Potency | activation
CC(C)SCc1ccco1 | inactive | 
CC1(C)[C@H]2CC[C@]1(C)C(=O)C2 |  | inconclusive: 5.39%
OC(CN1CCC(Cc2ccc(F)cc2)CC1)c1ccc(Cl)cc1 (stereo not given) | inactive | 
CNC(=O)Nc1ccc(Cl)c(Cl)c1 | inconclusive: 27.3 µM [rising, partial curve] | 
O=C1N(c2ccccc2)c2ccccc2C1(Cc1ccncc1)Cc1ccncc1 | inactive | 
O=C(O)c1cc(=O)c2c(OCC(O)COc3cccc4oc(C(=O)O)cc(=O)c34)cccc2o1 |  | inconclusive: 6.15% [at 42.5 µM]
Cc1c(Cl)c(=O)oc2cc(O)ccc12 | inconclusive: 34.4 µM [fluorescent, partial curve] | 
ClC(Cl)Cl |  | inconclusive: 10.5%
CCOC(=O)CC(CC(=O)OCC)(OC(C)=O)C(=O)OCC |  | inconclusive: 11.1%
O=C(c1ccc(O)cc1)c1ccc(O)c(O)c1O | active: 15.4 µM | 
CCN1CCCC1CNC(=O)c1cc(S(N)(=O)=O)ccc1OC (stereo not given) | inconclusive: 17.2 µM [rising, full curve, poor fit] | 
OCCOc1cccc(OCCO)c1 |  | inconclusive: 3.58%
CCCCCC(=O)O | inactive | 
COC(=O)C1=C(C)NC(C)=C(C(=O)OC(C)C)C1c1cccc2nonc12 (stereo not given) | inactive | 
Nc1ccccc1[N+](=O)[O-] |  | inconclusive: 13.3%
CCc1ccc(O)c(OC)c1 |  | inconclusive: 12.6%
O=C1OC2(c3ccccc31)c1ccc(O)c(Br)c1Oc1c2ccc(O)c1Br | inconclusive: 54.5 µM [rising, partial curve] | 
CCCCOCC | inactive | 
CN(C)CCOC(c1ccccc1)c1ccccc1 |  | inconclusive: 5.21%

Same assay, conditions: ER-beta-UAS-bla HEK293T, beta-lactamase FRET ratio, 16 h; at 92.4 µM (top of the series)

Structure (SMILES) | activation
O=C(O)c1cc(=O)c2c(OCC(O)COc3cccc4oc(C(=O)O)cc(=O)c34)cccc2o1 | inactive: 8.61%
